Measurements reported in the supplement of paper PMC8728848.
Some of the results follow.

Key:
Assay in all cases: glycan array binding signal (z-score within array); higher = stronger binding
Details in all cases: glycan notation: IUPAC condensed, linker removed
[1] = molecular target: Man(a1-3)[Man(a1-6)]Man(a1-6)[Man(a1-3)]Man(b1-4)GlcNAc(b1-4)GlcNAc
Method in brief: (§1)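 From the Consortium for Functional Glycomics database, 3228 arrays were curated, keeping only those whose protein sequence was available. Binding is given as a within-array Z-score averaged across arrays sharing a protein sequence and across linkers. Negative Z-scores can be read as non-binding.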

[2] = molecular target: Man(a1-3)[Man(a1-6)]Man(b1-4)GlcNAc(b1-4)GlcNAc
Method in brief: as §1

[3] = molecular target: Man(a1-3)[Man(a1-6)]Man(b1-4)GlcNAc(b1-4)[Fuc(a1-6)]GlcNAc
Method in brief: as §1

Man(a1-6)Man = molecular target: Man(a1-6)Man
Method in brief: as §1

Man(b1-4)GlcNAc = molecular target: Man(b1-4)GlcNAc
Method in brief: as §1

MurNAc(b1-4)GlcNAc = molecular target: MurNAc(b1-4)GlcNAc
Method in brief: as §1

Neu5Ac(a2-3)Gal = molecular target: Neu5Ac(a2-3)Gal
Method in brief: as §1

[4] = molecular target: Neu5Ac(a2-3)Gal(b1-3)GalNAc
Method in brief: as §1

[5] = molecular target: Neu5Ac(a2-3)Gal(b1-3)GalNAc(b1-3)Gal(a1-4)Gal(b1-4)Glc
Method in brief: as §1

[6] = molecular target: Neu5Ac(a2-3)Gal(b1-3)GalNAc(b1-4)[Neu5Ac(a2-3)]Gal(b1-4)Glc
Method in brief: as §1

[7] = molecular target: Neu5Ac(a2-3)Gal(b1-3)GalNAc(b1-4)[Neu5Ac(a2-8)Neu5Ac(a2-3)]Gal(b1-4)Glc
Method in brief: as §1

[8] = molecular target: Neu5Ac(a2-3)Gal(b1-3)GalNAc6S
Method in brief: as §1

[9] = molecular target: Neu5Ac(a2-3)Gal(b1-3)GlcNAc
Method in brief: as §1

[10] = molecular target: Neu5Ac(a2-3)Gal(b1-3)GlcNAc(b1-2)Man
Method in brief: as §1

[11] = molecular target: Neu5Ac(a2-3)Gal(b1-3)GlcNAc(b1-2)Man(a1-3)[GlcNAc(b1-4)][Neu5Ac(a2-3)Gal(b1-3)GlcNAc(b1-2)Man(a1-6)]Man(b1-4)GlcNAc(b1-4)GlcNAc
Method in brief: as §1

[12] = molecular target: Neu5Ac(a2-3)Gal(b1-3)GlcNAc(b1-2)Man(a1-3)[Neu5Ac(a2-3)Gal(b1-3)GlcNAc(b1-2)Man(a1-6)]Man(b1-4)GlcNAc(b1-4)GlcNAc
Method in brief: as §1

[13] = molecular target: Neu5Ac(a2-3)Gal(b1-3)GlcNAc(b1-3)Gal(b1-3)GlcNAc
Method in brief: as §1

[14] = molecular target: Neu5Ac(a2-3)Gal(b1-3)GlcNAc(b1-3)Gal(b1-4)GlcNAc
Method in brief: as §1

[15] = molecular target: Neu5Ac(a2-3)Gal(b1-3)GlcNAc(b1-3)GalNAc
Method in brief: as §1

[16] = molecular target: Neu5Ac(a2-3)Gal(b1-3)GlcNAc(b1-4)Gal(b1-4)Glc
Method in brief: as §1

[17] = molecular target: Neu5Ac(a2-3)Gal(b1-3)GlcNAc(b1-6)GalNAc
Method in brief: as §1

[18] = molecular target: Neu5Ac(a2-3)Gal(b1-3)GlcNAc6S
Method in brief: as §1

[19] = molecular target: Neu5Ac(a2-3)Gal(b1-3)[Fuc(a1-4)]GlcNAc
Method in brief: as §1

[20] = molecular target: Neu5Ac(a2-3)Gal(b1-3)[Fuc(a1-4)]GlcNAc(b1-3)Gal(b1-3)[Fuc(a1-4)]GlcNAc
Method in brief: as §1

[21] = molecular target: Neu5Ac(a2-3)Gal(b1-3)[Fuc(a1-4)]GlcNAc(b1-3)Gal(b1-4)[Fuc(a1-3)]GlcNAc
Method in brief: as §1

[22] = molecular target: Neu5Ac(a2-3)Gal(b1-3)[GlcNAc(b1-6)]GalNAc
Method in brief: as §1

[23] = molecular target: Neu5Ac(a2-3)Gal(b1-3)[Neu5Ac(a2-6)]GalNAc
Method in brief: as §1

[24] = molecular target: Neu5Ac(a2-3)Gal(b1-3)[Neu5Ac(a2-6)]GlcNAc(b1-3)[Fuc(a1-3)[Gal(b1-4)]GlcNAc(b1-6)]Gal(b1-4)Glc
Method in brief: as §1

[25] = molecular target: Neu5Ac(a2-3)Gal(b1-3)]Neu5Ac(a2-3)Gal(b1-4)]GlcNAc
Method in brief: as §1

Neu5Ac(a2-3)Gal(b1-4)Glc = molecular target: Neu5Ac(a2-3)Gal(b1-4)Glc
Method in brief: as §1

[26] = molecular target: Neu5Ac(a2-3)Gal(b1-4)GlcNAc
Method in brief: as §1

[27] = molecular target: Neu5Ac(a2-3)Gal(b1-4)GlcNAc(b1-2)Man
Method in brief: as §1

[28] = molecular target: Neu5Ac(a2-3)Gal(b1-4)GlcNAc(b1-2)Man(a1-3)[GlcNAc(b1-4)][Neu5Ac(a2-3)Gal(b1-4)GlcNAc(b1-2)Man(a1-6)]Man(b1-4)GlcNAc(b1-4)GlcNAc
Method in brief: as §1

[29] = molecular target: Neu5Ac(a2-3)Gal(b1-4)GlcNAc(b1-2)Man(a1-3)[Neu5Ac(a2-3)Gal(b1-4)GlcNAc(b1-2)Man(a1-6)]Man(b1-4)GlcNAc(b1-4)GlcNAc
Method in brief: as §1

[30] = molecular target: Neu5Ac(a2-3)Gal(b1-4)GlcNAc(b1-2)Man(a1-3)[Neu5Ac(a2-3)Gal(b1-4)GlcNAc(b1-2)Man(a1-6)]Man(b1-4)GlcNAc(b1-4)[Fuc(a1-6)]GlcNAc
Method in brief: as §1

[31] = molecular target: Neu5Ac(a2-3)Gal(b1-4)GlcNAc(b1-2)Man(a1-3)[Neu5Ac(a2-6)Gal(b1-4)GlcNAc(b1-2)Man(a1-6)]Man(b1-4)GlcNAc(b1-4)GlcNAc
Method in brief: as §1

[32] = molecular target: Neu5Ac(a2-3)Gal(b1-4)GlcNAc(b1-2)[Neu5Ac(a2-3)Gal(b1-4)GlcNAc(b1-4)]Man(a1-3)[GlcNAc(b1-4)][Neu5Ac(a2-3)Gal(b1-4)GlcNAc(b1-2)[Neu5Ac(a2-3)Gal(b1-4)GlcNAc(b1-6)]Man(a1-6)]Man(b1-4)GlcNAc(b1-4)GlcNAc
Method in brief: as §1

[33] = molecular target: Neu5Ac(a2-3)Gal(b1-4)GlcNAc(b1-2)[Neu5Ac(a2-3)Gal(b1-4)GlcNAc(b1-4)]Man(a1-3)[GlcNAc(b1-4)][Neu5Ac(a2-3)Gal(b1-4)GlcNAc(b1-4)Man(a1-6)]Man(b1-4)GlcNAc(b1-4)GlcNAc
Method in brief: as §1

B1: ACA (Amaranthus caudatus) (protein)
chain: MAGLPVIMCLKSNNNQKYLRYQSDNIQQYGLLQFSADKILDPLAQFEVEPSKTYDGLVHIKSRYTNKYLVRWSPNHYWITASANEPDENKSNWACTLFKPLYVEEGNMKKVRLLHVQLGHYTQNYTVGGSFVSYLFAESSQIDTGSKDVFHVIDWKSIFQFPKRYVTFKGNNGKYLGVITINQLPCLQFGYDNLNDPKVAHEMFVTSNGTICIKSTYMNKFWRLSTDDWILVDGNDPRETNEAAALFRSDVHDFNVISLLNMQKTWFIKRFTSGKPGFINCMNAATQNVDETAILEIIELGSNN
Q: Which “glycan array binding signal (z-score)” value [1] does the source give for B1 here?
A: -0.156

Q: And the “glycan array binding signal (z-score)” value [2]?
A: -0.462

Q: And the “glycan array binding signal (z-score)” value [3]?
A: -0.62

Q: What about the “glycan array binding signal (z-score)” value (Man(a1-6)Man) of the same binder?
A: 1.4

Q: What about the “glycan array binding signal (z-score)” value (Man(b1-4)GlcNAc) of the same binder?
A: -0.101

Q: And the “glycan array binding signal (z-score)” value (MurNAc(b1-4)GlcNAc)?
A: -0.012

Q: What about the “glycan array binding signal (z-score)” value (Neu5Ac(a2-3)Gal) of the same binder?
A: -0.232

Q: And the “glycan array binding signal (z-score)” value [4]?
A: -0.335

Q: And the “glycan array binding signal (z-score)” value [5]?
A: -0.168

Q: What about the “glycan array binding signal (z-score)” value [6] of the same binder?
A: -0.916

Q: What about the “glycan array binding signal (z-score)” value [7] of the same binder?
A: 0.052

Q: What about the “glycan array binding signal (z-score)” value [8] of the same binder?
A: -0.248

Q: And the “glycan array binding signal (z-score)” value [9]?
A: 0.142

Q: And the “glycan array binding signal (z-score)” value [10]?
A: -0.47

Q: And the “glycan array binding signal (z-score)” value [11]?
A: -0.413

Q: What about the “glycan array binding signal (z-score)” value [12] of the same binder?
A: 0.136

Q: What about the “glycan array binding signal (z-score)” value [13] of the same binder?
A: -0.664

Q: What about the “glycan array binding signal (z-score)” value [14] of the same binder?
A: -0.237

Q: What about the “glycan array binding signal (z-score)” value [15] of the same binder?
A: -0.045

Q: And the “glycan array binding signal (z-score)” value [16]?
A: -0.059

Q: And the “glycan array binding signal (z-score)” value [17]?
A: -0.683

Q: And the “glycan array binding signal (z-score)” value [18]?
A: 0.512

Q: What about the “glycan array binding signal (z-score)” value [19] of the same binder?
A: -0.247

Q: What about the “glycan array binding signal (z-score)” value [20] of the same binder?
A: -0.493

Q: And the “glycan array binding signal (z-score)” value [21]?
A: -0.248

Q: And the “glycan array binding signal (z-score)” value [22]?
A: -0.266

Q: And the “glycan array binding signal (z-score)” value [23]?
A: -0.397

Q: What about the “glycan array binding signal (z-score)” value [24] of the same binder?
A: -0.262

Q: And the “glycan array binding signal (z-score)” value [25]?
A: -0.479

Q: And the “glycan array binding signal (z-score)” value (Neu5Ac(a2-3)Gal(b1-4)Glc)?
A: 0.1

Q: And the “glycan array binding signal (z-score)” value [26]?
A: -0.176

Q: What about the “glycan array binding signal (z-score)” value [27] of the same binder?
A: 0.462

Q: What about the “glycan array binding signal (z-score)” value [28] of the same binder?
A: -0.581

Q: What about the “glycan array binding signal (z-score)” value [29] of the same binder?
A: -0.59

Q: What about the “glycan array binding signal (z-score)” value [30] of the same binder?
A: -0.317

Q: What about the “glycan array binding signal (z-score)” value [31] of the same binder?
A: -0.42

Q: And the “glycan array binding signal (z-score)” value [32]?
A: -0.519

Q: And the “glycan array binding signal (z-score)” value [33]?
A: 0.339
